{
  "source": "the supplement of paper PMC4466236",
  "note": "Whole data set: some 33,000 sequences, median “E-score (dimensionless, -0.5 to 0.5)” near -0.058, cut for the highest 2% near 0.35. The list shows a part of the results.",
  "data": [
    {"test_system": "MvaT", "assay": "PBM 8-mer E-score (mean of HK and ME arrays) (E-score (dimensionless, -0.5 to 0.5)); higher = stronger relative binding preference; most listed sequences are background and not binding sites", "method_in_brief": "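Reported values are rank-based E-scores, taken as the mean of two universal arrays and parsed with a custom script. Each 8-mer score falls between -0.5 and 0.5. The arrays, ME and HK, were double-stranded 60-mers with a constant 25-mer primer region and a variable 35-mer region covering all 8-mers. They were probed, by an earlier protocol, with full-length P. aeruginosa MvaT carrying an N-terminal glutathione S-transferase fusion.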", "values": [
      {"sequence": "CTCCGGAA", "PBM 8-mer E-score": -0.063},
      {"sequence": "GACTACGC", "PBM 8-mer E-score": -0.144},
      {"sequence": "ACTATCCG", "PBM 8-mer E-score": 0.111},
      {"sequence": "TCTTTCCA", "PBM 8-mer E-score": 0.0162},
      {"sequence": "CCAGCCCG", "PBM 8-mer E-score": -0.177},
      {"sequence": "CCTACAGG", "PBM 8-mer E-score": -0.26},
      {"sequence": "ATAACAAG", "PBM 8-mer E-score": 0.283},
      {"sequence": "AAAGGTAA", "PBM 8-mer E-score": 0.139},
      {"sequence": "AAAAGTTA", "PBM 8-mer E-score": 0.371},
      {"sequence": "ACTTTCGA", "PBM 8-mer E-score": 0.0758},
      {"sequence": "GCGTACGC", "PBM 8-mer E-score": -0.236},
      {"sequence": "GGCAGTGA", "PBM 8-mer E-score": -0.221},
      {"sequence": "CAAAAGAG", "PBM 8-mer E-score": -0.111},
      {"sequence": "AATCGGCA", "PBM 8-mer E-score": -0.0906},
      {"sequence": "CTCACTGA", "PBM 8-mer E-score": -0.186},
      {"sequence": "CACCGGCC", "PBM 8-mer E-score": -0.202},
      {"sequence": "GGGCAGAC", "PBM 8-mer E-score": -0.296},
      {"sequence": "GGAGACCC", "PBM 8-mer E-score": -0.244},
      {"sequence": "GCATGACA", "PBM 8-mer E-score": -0.249},
      {"sequence": "CTTCGGCC", "PBM 8-mer E-score": -0.145},
      {"sequence": "ATAGACAT", "PBM 8-mer E-score": -0.0368},
      {"sequence": "AACCAAAT", "PBM 8-mer E-score": 0.233},
      {"sequence": "CTGCGTTA", "PBM 8-mer E-score": -0.0902},
      {"sequence": "GATTGCCA", "PBM 8-mer E-score": 0.0164},
      {"sequence": "AGTAGGGG", "PBM 8-mer E-score": -0.227},
      {"sequence": "AGTCTTCA", "PBM 8-mer E-score": 0.0759},
      {"sequence": "AAAGTTGT", "PBM 8-mer E-score": 0.264},
      {"sequence": "AACGAGGC", "PBM 8-mer E-score": -0.0813},
      {"sequence": "ATTATGAG", "PBM 8-mer E-score": 0.222},
      {"sequence": "ATCCACAG", "PBM 8-mer E-score": -0.00723},
      {"sequence": "ATTAGACG", "PBM 8-mer E-score": 0.108},
      {"sequence": "ATTGAATA", "PBM 8-mer E-score": 0.234},
      {"sequence": "CGAACGGC", "PBM 8-mer E-score": -0.123},
      {"sequence": "GGCTGTGA", "PBM 8-mer E-score": -0.0788},
      {"sequence": "GAGCAACC", "PBM 8-mer E-score": -0.232},
      {"sequence": "GACGTCCC", "PBM 8-mer E-score": -0.261},
      {"sequence": "AGAACATG", "PBM 8-mer E-score": 0.0469},
      {"sequence": "CCAACGGG", "PBM 8-mer E-score": -0.262},
      {"sequence": "CGGTATCA", "PBM 8-mer E-score": 0.0368},
      {"sequence": "TGCTTAAA", "PBM 8-mer E-score": 0.287},
      {"sequence": "GCCCTTCA", "PBM 8-mer E-score": -0.316},
      {"sequence": "CATGTATC", "PBM 8-mer E-score": 0.12},
      {"sequence": "AGGTCGGA", "PBM 8-mer E-score": -0.238},
      {"sequence": "AGCGTAAT", "PBM 8-mer E-score": 0.165},
      {"sequence": "TAAACCAA", "PBM 8-mer E-score": 0.338},
      {"sequence": "ATTTACTC", "PBM 8-mer E-score": 0.0973},
      {"sequence": "AGGATGTG", "PBM 8-mer E-score": -0.0802},
      {"sequence": "ACGGGCCG", "PBM 8-mer E-score": -0.277},
      {"sequence": "TCCAGTCA", "PBM 8-mer E-score": -0.0459},
      {"sequence": "GATTTAGC", "PBM 8-mer E-score": 0.024},
      {"sequence": "CGGCTGCC", "PBM 8-mer E-score": -0.286},
      {"sequence": "GGTCTCCA", "PBM 8-mer E-score": -0.116},
      {"sequence": "GAGTCTTA", "PBM 8-mer E-score": 0.0735},
      {"sequence": "AATTACGA", "PBM 8-mer E-score": 0.298},
      {"sequence": "CCTTGACG", "PBM 8-mer E-score": -0.249},
      {"sequence": "AGAGCGTG", "PBM 8-mer E-score": -0.0625},
      {"sequence": "CCATGACC", "PBM 8-mer E-score": -0.276},
      {"sequence": "AGCCGCGC", "PBM 8-mer E-score": -0.221},
      {"sequence": "CCTTCCAG", "PBM 8-mer E-score": -0.288},
      {"sequence": "GGCCCGCA", "PBM 8-mer E-score": -0.33},
      {"sequence": "AGATGCCA", "PBM 8-mer E-score": -0.166},
      {"sequence": "AATGAAGA", "PBM 8-mer E-score": 0.166},
      {"sequence": "AGGTGGCC", "PBM 8-mer E-score": -0.221},
      {"sequence": "CACAAGGG", "PBM 8-mer E-score": -0.238},
      {"sequence": "ACACAGGT", "PBM 8-mer E-score": -0.0956},
      {"sequence": "AGTGGGAC", "PBM 8-mer E-score": 0.00019}
    ]}
  ]
}
